The supplement of paper PMC4967469
A lower IC50 marks a more sensitive line; fits outside the tested doses are given as limits. AUC, from the same fit, is the share of area under the viability curve across the 256-fold dose range; the more sensitive the line, the further below 1. For some assays here: Any top dose called inferred was calculated from the reported fits.

How the values were obtained:
Test in all cases: Viability of human cancer cell lines after 72 h of drug (GDSC screen)
[1] = compound: C=CC(=O)Nc1cc(-n2c(=O)ccc3cnc4ccc(-c5ccc(NS(C)(=O)=O)cc5)cc4c32)ccc1C [BMX-IN-1 (QL-XII-61)]; settings: top dose 10 µM; top dose inferred
Experimental: (§1)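 Human cancer cell lines in 384-well plates, medium with 10% serum, drug for 72 h over a 256-fold dose range (nine 2-fold or five 4-fold steps up to the top dose). Adherent lines were fixed and stained with the nucleic acid dye Syto60, suspension lines read with resazurin; signal relative to control wells, capped at 0 and 100%. One two-parameter sigmoid per drug and line, fitted in a mixed model over all curves with the slope shared within a line.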

[2] = compound: C=CCNC1=C2C[C@@H](C)C[C@H](OC)[C@H](O)[C@@H](C)/C=C(\C)[C@H](OC(N)=O)[C@@H](OC)/C=C\C=C(/C)C(=O)NC(=CC1=O)C2=O [17-AAG]; settings: top dose 1 µM
Experimental: as §1

[3] = compound: CCc1cc(-c2n[nH]c(C)c2-c2ccc3c(c2)OCCO3)c(O)cc1O [CCT018159]; settings: top dose 10 µM; top dose inferred
Experimental: as §1

[4] = compound: CN(C)Cc1cccc(N=C(c2ccccc2)c2c(O)[nH]c3cc(C(=O)N(C)C)ccc23)c1 [BIX02189]; settings: top dose 20 µM; top dose inferred
Experimental: as §1

[5] = compound: COC(=O)CNC(=O)C(=O)OC [Dimethyloxalylglycine]; settings: top dose 4000 µM; top dose inferred
Experimental: as §1

[6] = compound: COc1cccc2cc(-c3nc([C@H]4CC[C@H](C(=O)O)CC4)n4ncnc(N)c34)[nH]c12 [OSI-027]; settings: top dose 20 µM
Experimental: as §1

[7] = compound: CS(=O)(=O)c1ccc(C(=O)Nc2ccc(Cl)c(-c3ccccn3)c2)c(Cl)c1 [Vismodegib]; settings: top dose 10 µM; top dose inferred
Experimental: as §1

[8] = compound: Cc1cnc(Nc2ccc(F)cc2Cl)nc1-c1c[nH]c(C(=O)N[C@H](CO)c2cccc(Cl)c2)c1 [VX-11e]; settings: top dose 5.12 µM; top dose inferred
Experimental: as §1

[9] = compound: Cc1cnc(Nc2ccc(OCCN3CCCC3)cc2)nc1Nc1cccc(S(=O)(=O)NC(C)(C)C)c1 [TG101348]; settings: top dose 10.24 µM
Experimental: as §1

[10] = compound: O=C(c1ccc(C(=O)N2CCC(N3CCCC3)CC2)c(Nc2ccccc2)c1)N1CCC(N2CCCC2)CC1 [UNC1215]; settings: top dose 1 µM; top dose inferred
Experimental: as §1

| Cell Line | AUC [1] | IC50 [1] [µM] | AUC [2] | IC50 [2] [µM] | AUC [3] | IC50 [3] [µM] | AUC [4] | IC50 [4] [µM] | AUC [5] | IC50 [5] [µM] | AUC [6] | IC50 [6] [µM] | AUC [7] | IC50 [7] [µM] | AUC [8] | IC50 [8] [µM] | AUC [9] | IC50 [9] [µM] | AUC [10] | IC50 [10] [µM] |
| --- | --- | --- | --- | --- | --- | --- | --- | --- | --- | --- | --- | --- | --- | --- | --- | --- | --- | --- | --- | --- |
| D-247MG (glioma, adherent) | 0.91 | > 10 | 0.586 | 0.117 | 0.967 | > 10 | 0.889 | > 20 | 0.757 | 1860 | 0.663 | 4.22 | 0.961 | > 10 | 0.469 | 0.256 | 0.646 | 1.89 | 0.976 | > 1 |
| HUTU-80 (digestive system, adherent) | 0.99 | > 10 | 0.923 | > 1 | 0.891 | 8.19 | 0.934 | > 20 | 0.761 | 1200 | 0.08 | < 0.0781 | 0.991 | > 10 | 0.832 | 2.52 | 0.807 | 4.19 | 0.991 | > 1 |
| NCI-H82 (small cell lung carcinoma, suspension) | 0.971 | > 10 | 0.985 | > 1 | 0.988 | > 10 | 0.974 | > 20 | 0.851 | 2830 | 0.814 | 10.2 | 0.97 | > 10 | 0.989 | > 5.12 | 0.942 | > 10.2 | 0.986 | > 1 |
| C-4-I (cervix, adherent) | 0.985 | > 10 | 0.493 | 0.0599 | 0.893 | > 10 | 0.986 | > 20 | 0.782 | 1820 | 0.901 | > 20 | 0.981 | > 10 | 0.985 | > 5.12 | 0.976 | > 10.2 |  |  |
| KM12 (large intestine, adherent) | 0.964 | > 10 | 0.51 | 0.0668 | 0.791 | 4.91 | 0.746 | 6.81 | 0.768 | 1630 | 0.775 | 8.58 | 0.986 | > 10 | 0.871 | > 5.12 | 0.599 | 1.23 | 0.984 | > 1 |
| EMC-BAC-2 (lung adenocarcinoma, adherent) | 0.94 | > 10 | 0.573 | 0.103 | 0.951 | > 10 | 0.966 | > 20 |  |  | 0.404 | 0.65 | 0.982 | > 10 | 0.978 | > 5.12 | 0.68 | 2.26 | 0.976 | > 1 |
| RCC-MF (kidney, adherent) | 0.965 | > 10 | 0.852 | > 1 | 0.98 | > 10 | 0.895 | > 20 |  |  | 0.153 | < 0.0781 | 0.952 | > 10 | 0.91 | > 5.12 | 0.734 | 3.7 | 0.975 | > 1 |
| LB647-SCLC (small cell lung carcinoma, semi-adherent) | 0.662 | 1.87 | 0.967 | > 1 | 0.969 | > 10 |  |  | 0.756 | 1510 |  |  | 0.982 | > 10 |  |  |  |  | 0.983 | > 1 |
| CADO-ES1 (Ewing sarcoma, suspension) | 0.957 | > 10 | 0.988 | > 1 | 0.983 | > 10 | 0.891 | > 20 |  |  | 0.167 | 0.118 | 0.976 | > 10 | 0.988 | > 5.12 | 0.863 | 9.09 | 0.984 | > 1 |
| LoVo (large intestine, adherent) | 0.986 | > 10 | 0.935 | > 1 |  |  | 0.987 | > 20 | 0.702 | 935 | 0.884 | > 20 | 0.973 | > 10 | 0.898 | > 5.12 | 0.969 | > 10.2 | 0.986 | > 1 |
| OV-56 (ovary, adherent) | 0.979 | > 10 | 0.603 | 0.118 | 0.92 | > 10 | 0.975 | > 20 |  |  | 0.728 | 5.38 | 0.961 | > 10 | 0.98 | > 5.12 | 0.949 | > 10.2 | 0.988 | > 1 |
| TE-4 (oesophagus, adherent) | 0.986 | > 10 | 0.318 | 0.0194 | 0.836 | 6.57 | 0.986 | > 20 |  |  | 0.8 | 9.61 | 0.975 | > 10 | 0.985 | > 5.12 | 0.805 | 5.13 | 0.985 | > 1 |
| OVCA420 (ovary, adherent) | 0.979 | > 10 | 0.732 | 0.365 | 0.974 | > 10 | 0.922 | > 20 |  |  | 0.898 | > 20 | 0.982 | > 10 | 0.927 | > 5.12 | 0.969 | > 10.2 | 0.975 | > 1 |
| RCC-JW (kidney, adherent) | 0.678 | 1.99 | 0.631 | 0.146 | 0.917 | > 10 | 0.957 | > 20 |  |  | 0.139 | 0.0888 | 0.986 | > 10 | 0.986 | > 5.12 | 0.67 | 1.93 | 0.984 | > 1 |
